In the supplement of paper PMC3334620:
Whole data set: some 33,000 sequences, median “E-score (-0.5 to 0.5)” near -0.012, cut for the highest 2% near 0.29. Some of the results follow.

Each sequence was assayed against T1, Ybr033w (UniProt P38073) (assay: PBM E-score (8-mer binding enrichment) (E-score (-0.5 to 0.5)); higher = stronger / more preferred TF binding; most listed sequences are background and not binding sites). Conditions: protein concentration: 200 nM; construct: GST-full length.
T1 sequence: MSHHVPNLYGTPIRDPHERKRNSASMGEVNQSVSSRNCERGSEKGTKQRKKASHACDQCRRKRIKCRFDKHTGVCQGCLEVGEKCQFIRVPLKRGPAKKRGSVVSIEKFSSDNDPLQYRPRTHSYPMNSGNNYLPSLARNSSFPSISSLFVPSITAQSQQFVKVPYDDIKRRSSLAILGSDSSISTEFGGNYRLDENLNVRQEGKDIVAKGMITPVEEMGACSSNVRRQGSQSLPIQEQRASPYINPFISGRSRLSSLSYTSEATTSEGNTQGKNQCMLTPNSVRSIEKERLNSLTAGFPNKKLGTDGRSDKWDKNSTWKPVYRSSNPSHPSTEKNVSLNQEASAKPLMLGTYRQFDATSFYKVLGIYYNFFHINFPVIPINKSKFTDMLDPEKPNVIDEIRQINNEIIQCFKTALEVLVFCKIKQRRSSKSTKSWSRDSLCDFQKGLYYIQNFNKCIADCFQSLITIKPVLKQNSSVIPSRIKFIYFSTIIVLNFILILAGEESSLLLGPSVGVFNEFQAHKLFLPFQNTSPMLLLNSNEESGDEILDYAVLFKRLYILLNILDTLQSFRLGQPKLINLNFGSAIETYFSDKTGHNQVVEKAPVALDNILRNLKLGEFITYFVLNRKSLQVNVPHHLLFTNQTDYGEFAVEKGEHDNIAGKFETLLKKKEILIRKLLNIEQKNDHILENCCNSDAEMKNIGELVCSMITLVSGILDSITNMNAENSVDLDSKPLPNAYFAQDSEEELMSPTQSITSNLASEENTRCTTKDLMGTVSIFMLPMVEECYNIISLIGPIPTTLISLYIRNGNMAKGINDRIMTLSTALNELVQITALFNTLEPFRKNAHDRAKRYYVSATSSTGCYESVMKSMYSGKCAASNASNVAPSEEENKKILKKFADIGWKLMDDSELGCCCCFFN
Protocol: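 Universal 'all 10-mer' protein binding microarrays (Agilent AMADID 015681) probed with GST-tagged S. cerevisiae TFs (full-length or DBD) made by in vitro transcription/translation (PURExpress), about 100-200 nM. Bound TF was detected with fluorescent anti-GST. Each ungapped 8-mer (which stands for itself and its reverse complement) is scored by the PBM enrichment score (E-score), a modified Wilcoxon-Mann-Whitney statistic from -0.5 to +0.5, computed with the Universal PBM Analysis Suite. Scale: above 0.35 generally sequence-specific binding.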

Sequence | PBM E-score
ATAGTCAC | 0.159
AGTGTCCG | -0.124
GCTCTGAA | -0.0631
ATCCGGGA | 0.0253
ACGGTAAC | 0.122
AAGGTCCC | -0.179
CTTGATCA | -0.0299
CAGACCGA | -0.101
GCCACAAA | 0.14
ACGAATCT | 0.182
CGATTCAA | 0.0308
CCTATGTA | 0.142
GTATAGAC | 0.117
AGCAGGTA | -0.0336
CGGCGCTA | -0.224
ACCAAGGC | -0.0863
CGCAAACG | -0.0157
CAAACCGG | -0.0689
GCAGATGA | -0.095
CCTGCAAC | -0.034
ATACAGGC | -0.112
ATTAAATA | 0.33
AGATGTAC | 0.0883
ATTATCAG | 0.118
CGATGAGA | 0.177

Sequence | PBM E-score
AGGGTAAC | -0.228
AGGTAATG | -0.00189
GCTTGGAA | 0.105
AATTTAAA | 0.263
ACGACCAA | 0.0885
CTCGTGAC | -0.157
CCTGGCCG | -0.0575
ACACTTCG | 0.153
GGACCTAC | -0.0357
CACAGAGG | -0.112
CCTATGCA | 0.089
AAATTTCT | 0.136
AGTGCTCG | -0.00427
CCTACGCG | -0.0394
GCTAGGAA | -0.0692
CCAACAGA | -0.087
CAGAAAAA | 0.0895
CACCTACC | -0.214
GGGCTAAA | -0.0609
ATCTCGAG | -0.0425
CATTCTAG | 0.119
ACACCGCT | -0.158
CGGGTTTA | 0.163
AGCGGGGA | -0.201
ACACGTAC | -0.0636

Sequence | PBM E-score
AGAGGCGA | -0.266
CAACGGTC | -0.0551
AGAGGCAA | -0.0963
ACCTTCTA | -0.0626
GCCCCATA | -0.0981
GGAGGCCA | -0.221
GAGCAATC | 0.115
AGCTTCCA | 0.2
CTTAGAGC | -0.052
ACAGAGGT | -0.0564
AGCGATAA | -0.0195
GGGTGGTA | -0.103
CGTTGAAC | 0.0781
CGTAACAC | -0.0282
ACAGGCCT | -0.123
CTCTGTAA | 0.0142
GCTTCCGA | 0.14
ATATGGTG | 0.0659
CCAACTTC | 0.0297
GACCAGTA | -0.174
GTGAATTA | 0.118
ACCCCCAG | -0.241
ACAATTTC | 0.166
CCATCCAA | 0.0511
CATTCGGA | 0.198

Sequence | PBM E-score
CGGGGTAA | 0.0024
ATCTGCCG | 0.0332
GACCACGC | -0.223
CCACACGC | -0.0385
TCTCGCCA | -0.00247
CAAGTAAA | 0.113
CGTTGTTC | 0.119
CGTGCTAC | -0.223
ACCTGGTC | -0.0936
CTGGTAGA | 0.135
CAAACGAC | 0.146
AGGGCGAA | 0.00984
AAAGCGTG | -0.124
CCTGAGGC | -0.259
CCAGCCCA | -0.298
CCGAACGA | 0.0558
GGGAAACA | 0.0327
AATGTATG | 0.15
ATTTTTTA | 0.193
AGCCCGCG | -0.318
TGTCGGAA | 0.0696
GATCGCCA | -0.154
GACCGGAA | 0.036
CATCCATG | 0.0683
CGGAATAC | 0.186

Sequence | PBM E-score
CATCCTAG | -0.0462
AGGAAGAG | -0.0292
ATCGTACA | 0.188
AGGTCTCA | -0.102
ACACTCTA | 0.121
TACTAAAA | 0.243
TCCTCACA | -0.105
ACGGAGAG | -0.17
ACCCGTCT | -0.0592
AAATGTCA | 0.00238
GAGAGTGA | 0.0923
GACACCTC | -0.115
CACTCTTA | 0.0582
CTTGAAAC | 0.181
ACTCCAGA | 0.0397
GCCCGGGC | -0.27
GCGTGTCA | 0.0699
ACTAGTAG | 0.113
AGAACGAT | 0.14
CTTCGACA | -0.0144
ATGCGCAC | 0.0412
AAGAAGGA | -0.0821
TGAGTGCA | -0.077
GAGTCAAC | -0.105
AAGGATAT | 0.205

Sequence | PBM E-score
CCCGCAAG | -0.245
ACACCGCA | 0.0328
AATTTTTA | 0.256
AACACCCG | 0.0827
AATTAGGA | 0.126
ACAGAGGC | -0.3
ATAAGTAC | 0.17
CCAAGGCG | -0.234
ATTAAGGG | -0.0754
CGTTTTTC | 0.187
CCGCAGAC | -0.238
GACACCGC | -0.118
ACTAAATC | 0.278
CACACGGC | -0.209
AAAGATGA | 0.167
CAGTATAG | 0.168
GGAAGTGA | -0.0675
AGATTGAG | 0.242
AAGATGAC | 0.0438
CAATCACC | 0.0353
CAAAACGC | -0.142
CGCGCGCC | 0.0396
AACGGGGA | -0.0326
GCCAAGGA | -0.182
CGCTTTAC | 0.018

Sequence | PBM E-score
CGTGTTTA | 0.0527
CGCGGACA | -0.0655
GCCTGCGA | -0.192
AATGAACT | 0.232
TCATCCAA | 0.16
GCAATTGA | 0.0953
CTGTTAGC | 0.0123
GCGGGAGA | -0.129
ACCTACAC | -0.177
GTGATGAA | 0.0226
GACCGGCA | -0.227
TCCCAAGA | 0.0369
GTAATGCA | -0.128
CACATGAC | -0.13
AATAATGT | 0.183
CGAACGGA | -0.0681
ACAAACAT | 0.184
AAAAGCTG | -0.0352
GTAACGCA | 0.00793
CCAGAGTC | -0.0375
CCAGCTAA | -0.215
ATGTCTTA | 0.055
